ChEMBL document CHEMBL5674866 (J Biol Chem, 2015)

Experiments:
KYSE-150 cell line [1] = experiment: Antiproliferative activity against human KYSE-150 cell line measured after 7 days by celltitre-glo luminescent assay; assay type: functional, cell-based; conditions: KYSE-150, 168 h
UACC-812 = experiment: Antiproliferative activity against human UACC-812 cells measured after 7 day by celltitre-glo luminescent assay; assay type: functional, cell-based; conditions: UACC-812, 168 h
[2] = Inhibition of human ABL1 pE255K mutant by discoverX kinome scan assay
[3] = target: Mitogen-activated protein kinase kinase kinase 11 (Homo sapiens, UniProt Q16584); experiment: Inhibition of human MLK3 by discoverX kinome scan assay
[4] = target: Macrophage-stimulating protein receptor (Homo sapiens, UniProt Q04912); experiment: Inhibition of human MST1R by discoverX kinome scan assay
[5] = target: Serine/threonine-protein kinase 3 (Homo sapiens, UniProt Q13188); experiment: Inhibition of human MST2 by discoverX kinome scan assay
[6] = target: Serine/threonine-protein kinase Nek1 (Homo sapiens, UniProt Q96PY6); experiment: Inhibition of human NEK1 by discoverX kinome scan assay
[7] = target: Serine/threonine-protein kinase Nek4 (Homo sapiens, UniProt P51957); experiment: Inhibition of human NEK4 by discoverX kinome scan assay
[8] = target: Mitogen-activated protein kinase 12 (Homo sapiens, UniProt P53778); experiment: Inhibition of human p38-gamma by discoverX kinome scan assay
[9] = target: Serine/threonine-protein kinase PAK 2 (Homo sapiens, UniProt Q13177); experiment: Inhibition of human PAK2 by discoverX kinome scan assay
[10] = target: Phosphorylase b kinase gamma catalytic chain, skeletal muscle/heart isoform (Homo sapiens, UniProt Q16816); experiment: Inhibition of human PHKG1 by discoverX kinome scan assay
[11] = target: Phosphatidylinositol 4,5-bisphosphate 3-kinase catalytic subunit alpha isoform (Homo sapiens, UniProt P42336); experiment: Inhibition of human PIK3CA by discoverX kinome scan assay
[12] = target: Phosphatidylinositol 4,5-bisphosphate 3-kinase catalytic subunit alpha isoform (Homo sapiens, UniProt P42336, M1043I); experiment: Inhibition of human PIK3CA M1043I mutant by discoverX kinome scan assay
[13] = target: Serine/threonine-protein kinase pim-2 (Homo sapiens, UniProt Q9P1W9); experiment: Inhibition of human PIM2 by discoverX kinome scan assay
[14] = target: Serine/threonine-protein kinase PLK2 (Homo sapiens, UniProt Q9NYY3); experiment: Inhibition of human PLK2 by discoverX kinome scan assay
[15] = target: cGMP-dependent protein kinase 2 (Homo sapiens, UniProt Q13237); experiment: Inhibition of PRKG2 (unknown origin) by discoverX kinome scan assay
[16] = target: cAMP-dependent protein kinase catalytic subunit PRKX (Homo sapiens, UniProt P51817); experiment: Inhibition of PRKX (unknown origin) by discoverX kinome scan assay
KYSE-150 cell line [17] = experiment: Effect on cellular post-translational modifications on histone H3 (TKQTAR) - K4 unmethylated in human KYSE-150 cells assessed as relative abundance at 5 by mass spectrometric analysis (reference value: 85.5+/-0.9); assay type: functional; conditions: dose 5 µM
Outline: (§1)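 Histones acid-extracted from SMYD2-overexpressing KYSE-150 cells treated with vehicle or 5 μM inhibitor. Samples derivatized with propionic anhydride, then trypsin-digested for 6 h at 37 °C. Each modification's relative abundance on a peptide sequence, as a percentage, was quantified from MS and MS/MS spectra and compared with vehicle.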

KYSE-150 cell line [18] = experiment: Effect on cellular post-translational modifications on histone H3 (KSTGGKAPR) - K9 monomethylated, K14 acetylated in human KYSE-150 cells assessed as relative abundance at 5 by mass spectrometric analysis (reference value: 6.2+/-0.7); assay type: functional; conditions: dose 5 µM
KYSE-150 cell line [19] = experiment: Effect on cellular post-translational modifications on histone H3 (KSTGGKAPR) - K9 unmethylated, K14 unmethylated in human KYSE-150 cells assessed as fold change by mass spectrometric analysis; assay type: functional; outline: as §1
KYSE-150 cell line [20] = experiment: Effect on cellular post-translational modifications on histone H3 (KSTGGKAPR) - K9 unmethylated, K14 acetylated in human KYSE-150 cells assessed as fold change by mass spectrometric analysis; assay type: functional; outline: as §1
KYSE-150 cell line [21] = experiment: Effect on cellular post-translational modifications on histone H3 (KSTGGKAPR) - K9 trimethylated, K14 acetylated in human KYSE-150 cells assessed as fold change by mass spectrometric analysis; assay type: functional; outline: as §1
KYSE-150 cell line [22] = experiment: Effect on cellular post-translational modifications on histone H4 (KVLR) - K20 unmethylated in human KYSE-150 cells assessed as fold change by mass spectrometric analysis; assay type: functional; outline: as §1

Chain of UniProt Q9P1W9 (Q9P1W9 whole entry): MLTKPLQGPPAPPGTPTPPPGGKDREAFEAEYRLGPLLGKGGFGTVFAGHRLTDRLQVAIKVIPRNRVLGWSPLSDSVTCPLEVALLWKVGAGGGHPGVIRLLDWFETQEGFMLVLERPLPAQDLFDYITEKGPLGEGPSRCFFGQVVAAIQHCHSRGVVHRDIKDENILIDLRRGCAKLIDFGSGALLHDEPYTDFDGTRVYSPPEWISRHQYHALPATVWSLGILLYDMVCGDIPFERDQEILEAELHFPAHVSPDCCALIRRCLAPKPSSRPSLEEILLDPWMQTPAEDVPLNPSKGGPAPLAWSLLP
Chain of UniProt Q16816 (Q16816 whole entry, canonical isoform): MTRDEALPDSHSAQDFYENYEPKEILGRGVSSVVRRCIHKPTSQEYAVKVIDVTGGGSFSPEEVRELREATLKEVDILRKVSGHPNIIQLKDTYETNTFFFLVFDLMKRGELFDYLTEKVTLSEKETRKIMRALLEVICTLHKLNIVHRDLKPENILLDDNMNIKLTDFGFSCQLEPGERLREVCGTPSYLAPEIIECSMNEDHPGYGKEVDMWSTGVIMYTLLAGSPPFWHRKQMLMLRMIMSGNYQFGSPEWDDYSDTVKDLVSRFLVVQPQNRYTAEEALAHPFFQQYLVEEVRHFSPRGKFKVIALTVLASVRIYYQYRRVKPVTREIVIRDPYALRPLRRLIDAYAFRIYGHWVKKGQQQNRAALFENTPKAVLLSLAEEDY
Chain of UniProt P42336 (P42336 whole entry, canonical isoform): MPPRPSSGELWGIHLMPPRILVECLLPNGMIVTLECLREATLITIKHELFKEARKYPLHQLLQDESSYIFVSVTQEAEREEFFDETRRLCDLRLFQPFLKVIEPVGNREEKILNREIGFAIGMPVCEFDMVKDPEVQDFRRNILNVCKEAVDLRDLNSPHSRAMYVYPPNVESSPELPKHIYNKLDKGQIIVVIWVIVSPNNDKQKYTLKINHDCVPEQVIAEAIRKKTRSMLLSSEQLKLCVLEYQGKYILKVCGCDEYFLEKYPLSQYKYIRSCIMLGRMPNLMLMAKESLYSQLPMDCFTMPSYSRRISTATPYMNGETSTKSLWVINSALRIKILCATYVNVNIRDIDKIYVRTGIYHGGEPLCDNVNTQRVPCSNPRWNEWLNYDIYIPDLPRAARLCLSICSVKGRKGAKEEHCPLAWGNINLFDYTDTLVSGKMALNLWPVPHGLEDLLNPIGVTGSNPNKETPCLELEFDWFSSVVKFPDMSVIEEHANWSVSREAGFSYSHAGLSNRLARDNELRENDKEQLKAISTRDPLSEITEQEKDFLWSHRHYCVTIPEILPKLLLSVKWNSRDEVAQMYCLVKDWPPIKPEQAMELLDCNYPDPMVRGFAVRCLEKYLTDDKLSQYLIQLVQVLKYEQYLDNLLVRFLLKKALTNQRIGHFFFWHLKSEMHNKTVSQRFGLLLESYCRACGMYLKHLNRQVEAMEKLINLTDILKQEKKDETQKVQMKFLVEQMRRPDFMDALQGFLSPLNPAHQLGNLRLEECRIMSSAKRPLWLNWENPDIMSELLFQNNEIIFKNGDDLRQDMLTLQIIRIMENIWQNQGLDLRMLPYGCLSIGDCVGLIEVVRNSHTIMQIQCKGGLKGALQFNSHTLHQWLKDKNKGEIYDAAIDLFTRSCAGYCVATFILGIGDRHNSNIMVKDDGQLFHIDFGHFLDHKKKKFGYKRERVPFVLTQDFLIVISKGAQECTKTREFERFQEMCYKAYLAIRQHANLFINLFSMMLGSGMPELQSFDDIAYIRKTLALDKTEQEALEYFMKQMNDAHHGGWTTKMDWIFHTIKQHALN
Chain of UniProt P53778 (P53778 whole entry): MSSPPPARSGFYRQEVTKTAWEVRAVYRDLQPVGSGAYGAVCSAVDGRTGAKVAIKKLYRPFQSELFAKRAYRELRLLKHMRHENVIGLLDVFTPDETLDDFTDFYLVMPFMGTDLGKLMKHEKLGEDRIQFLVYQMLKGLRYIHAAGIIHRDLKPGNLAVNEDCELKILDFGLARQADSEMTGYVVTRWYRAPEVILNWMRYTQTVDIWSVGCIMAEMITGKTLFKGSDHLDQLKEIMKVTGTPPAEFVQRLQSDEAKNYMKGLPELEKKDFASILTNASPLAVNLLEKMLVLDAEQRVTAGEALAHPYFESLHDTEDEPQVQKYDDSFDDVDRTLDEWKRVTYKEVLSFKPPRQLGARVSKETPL
Chain of UniProt Q13177 (Q13177 whole entry, canonical isoform): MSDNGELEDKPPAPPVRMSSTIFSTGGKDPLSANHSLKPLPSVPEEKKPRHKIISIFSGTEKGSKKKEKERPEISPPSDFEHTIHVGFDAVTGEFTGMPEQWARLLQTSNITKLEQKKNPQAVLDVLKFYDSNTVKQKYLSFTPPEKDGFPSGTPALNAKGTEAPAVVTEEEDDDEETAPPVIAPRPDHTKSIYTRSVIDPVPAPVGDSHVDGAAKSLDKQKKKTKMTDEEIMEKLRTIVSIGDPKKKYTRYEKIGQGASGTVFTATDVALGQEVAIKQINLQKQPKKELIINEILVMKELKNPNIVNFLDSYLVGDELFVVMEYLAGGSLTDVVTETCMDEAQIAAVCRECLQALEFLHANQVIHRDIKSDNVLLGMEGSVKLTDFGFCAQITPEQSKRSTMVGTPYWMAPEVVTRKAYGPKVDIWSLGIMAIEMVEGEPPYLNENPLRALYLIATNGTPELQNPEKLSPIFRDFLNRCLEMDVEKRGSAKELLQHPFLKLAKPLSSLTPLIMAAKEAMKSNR
Chain of UniProt Q9NYY3 (Q9NYY3 whole entry): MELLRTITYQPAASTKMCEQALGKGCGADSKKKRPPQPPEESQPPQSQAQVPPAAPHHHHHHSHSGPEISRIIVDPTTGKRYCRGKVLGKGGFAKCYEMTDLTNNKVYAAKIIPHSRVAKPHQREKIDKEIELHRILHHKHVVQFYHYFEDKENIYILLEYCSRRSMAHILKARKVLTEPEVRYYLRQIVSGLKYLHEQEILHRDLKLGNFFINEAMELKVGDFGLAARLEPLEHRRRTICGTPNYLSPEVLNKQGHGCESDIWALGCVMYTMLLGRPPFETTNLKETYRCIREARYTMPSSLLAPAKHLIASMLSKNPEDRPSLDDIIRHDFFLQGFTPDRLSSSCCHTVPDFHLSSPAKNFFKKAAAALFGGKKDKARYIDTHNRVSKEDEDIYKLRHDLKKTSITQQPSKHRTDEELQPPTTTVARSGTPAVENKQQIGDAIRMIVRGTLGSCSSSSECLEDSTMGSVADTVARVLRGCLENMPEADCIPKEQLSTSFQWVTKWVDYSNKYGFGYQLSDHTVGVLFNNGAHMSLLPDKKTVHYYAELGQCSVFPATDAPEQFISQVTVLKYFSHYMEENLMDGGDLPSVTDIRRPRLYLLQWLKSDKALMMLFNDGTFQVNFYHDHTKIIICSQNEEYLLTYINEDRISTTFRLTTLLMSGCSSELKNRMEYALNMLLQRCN
Chain of UniProt P51817 (P51817 whole entry): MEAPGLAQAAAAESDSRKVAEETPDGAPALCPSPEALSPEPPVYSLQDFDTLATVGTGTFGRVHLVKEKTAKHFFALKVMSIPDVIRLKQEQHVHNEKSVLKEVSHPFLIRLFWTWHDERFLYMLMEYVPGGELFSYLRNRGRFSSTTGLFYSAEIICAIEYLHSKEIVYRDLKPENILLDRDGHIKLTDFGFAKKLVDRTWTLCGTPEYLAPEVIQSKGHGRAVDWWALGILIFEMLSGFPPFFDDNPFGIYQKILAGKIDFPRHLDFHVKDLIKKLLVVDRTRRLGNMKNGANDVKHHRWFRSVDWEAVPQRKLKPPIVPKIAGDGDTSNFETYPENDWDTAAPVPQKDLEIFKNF
Chain of UniProt Q13188 (Q13188 whole entry): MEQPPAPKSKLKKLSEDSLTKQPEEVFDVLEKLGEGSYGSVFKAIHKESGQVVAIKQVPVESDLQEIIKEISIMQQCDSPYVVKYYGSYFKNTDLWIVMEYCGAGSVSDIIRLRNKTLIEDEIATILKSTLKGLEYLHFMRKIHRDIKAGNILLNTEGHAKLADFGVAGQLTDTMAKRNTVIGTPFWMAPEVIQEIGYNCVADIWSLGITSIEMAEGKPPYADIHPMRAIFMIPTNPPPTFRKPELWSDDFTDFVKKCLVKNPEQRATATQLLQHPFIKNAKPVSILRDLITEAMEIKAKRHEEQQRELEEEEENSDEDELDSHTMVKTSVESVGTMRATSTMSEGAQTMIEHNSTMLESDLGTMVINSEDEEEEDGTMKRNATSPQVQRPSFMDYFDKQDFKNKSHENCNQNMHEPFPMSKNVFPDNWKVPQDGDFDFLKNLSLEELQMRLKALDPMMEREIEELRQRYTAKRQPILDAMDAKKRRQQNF
Chain of UniProt Q13237 (Q13237 whole entry): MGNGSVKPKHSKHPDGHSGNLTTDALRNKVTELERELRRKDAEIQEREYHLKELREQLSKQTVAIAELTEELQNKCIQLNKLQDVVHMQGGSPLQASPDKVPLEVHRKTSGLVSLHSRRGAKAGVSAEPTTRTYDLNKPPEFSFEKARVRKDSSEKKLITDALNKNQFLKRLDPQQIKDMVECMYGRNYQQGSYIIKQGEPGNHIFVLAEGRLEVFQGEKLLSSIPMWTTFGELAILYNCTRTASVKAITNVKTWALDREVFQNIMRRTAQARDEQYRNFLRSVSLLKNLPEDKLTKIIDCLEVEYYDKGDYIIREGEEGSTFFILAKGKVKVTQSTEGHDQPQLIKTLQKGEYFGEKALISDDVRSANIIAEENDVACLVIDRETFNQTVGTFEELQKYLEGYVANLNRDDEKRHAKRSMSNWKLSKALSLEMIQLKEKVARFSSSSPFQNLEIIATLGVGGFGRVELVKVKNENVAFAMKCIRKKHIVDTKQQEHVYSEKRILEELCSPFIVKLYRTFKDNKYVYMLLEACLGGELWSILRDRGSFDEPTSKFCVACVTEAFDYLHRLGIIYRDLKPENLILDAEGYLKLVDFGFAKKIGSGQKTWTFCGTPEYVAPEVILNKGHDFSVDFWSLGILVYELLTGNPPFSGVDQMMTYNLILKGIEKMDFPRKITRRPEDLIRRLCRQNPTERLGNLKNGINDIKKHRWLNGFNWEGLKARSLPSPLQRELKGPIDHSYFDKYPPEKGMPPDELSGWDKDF

`Cc1cn(CCN2CCN(c3ccccc3-c3cc(C#N)cc(C(=O)NCCCN4CCCC4)c3)CC2)c2ccccc12` showed an IC50 (KYSE-150 cell line [1]) of 0.3 µM, an IC50 (UACC-812) of 0.3 µM and an IC50 [2] greater than 20 µM. The IC50 [3] was greater than 20 µM, the IC50 [4] was greater than 20 µM and the IC50 [5] was greater than 20 µM. The IC50 [6] was greater than 20 µM, the IC50 [7] was greater than 20 µM and the IC50 [8] was greater than 20 µM. The IC50 [9] was greater than 20 µM, the IC50 [10] was greater than 20 µM and the IC50 [11] was greater than 20 µM. It also gave an IC50 [12] greater than 20 µM, an IC50 [13] greater than 20 µM and an IC50 [14] greater than 20 µM. For the same molecule, the IC50 [15] was greater than 20 µM, the IC50 [16] was greater than 20 µM and the Activity (KYSE-150 cell line [17]) was 83.8. For the same molecule, the Activity (KYSE-150 cell line [18]) was 8, the “fold change (FC)” value (KYSE-150 cell line [19]) was 0.9 and the “fold change (FC)” value (KYSE-150 cell line [20]) was 1. The “fold change (FC)” value (KYSE-150 cell line [21]) was 1.1 and the “fold change (FC)” value (KYSE-150 cell line [22]) was 0.98.
